Reference: the supplement of paper PMC10037445
In all, about 2,900 compounds were measured (“NF-kB SEAP reporter activity, fold change vs agonist alone”: median about 0.99, highest 2% from about 2.6 on). Some of the results follow.

How the values were obtained:
RAW-Dual [1] = experiment: NF-kB SEAP reporter activity, fold change vs agonist alone; higher = enhanced NF-kB activity; details: library stock concentration (final ~1000-fold dilution): 10 mM
How it was run: (§1)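 Supernatant from RAW-Dual macrophages was read after 20 hours for IRF by QuantiLuc luminescence and for NF-κB by QuantiBlue absorbance at 620 nm. The cells (50,000 cells/well in DMEM, 384-well plates, 37 °C, 5% CO2) had received 50 nL of library stock by pin tool and, 1 h later, a PRR agonist. Reporter activity is expressed relative to agonist-alone wells as fold change, and wells were flagged cytotoxic if IncuCyte confluency was under 70% of agonist controls in both mask sets.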

RAW-Dual [2] = experiment: NF-kB SEAP reporter activity, fold change vs agonist alone; cytotoxicity flag (confluency mask): not cytotoxic; higher = enhanced NF-kB activity
How it was run: as §1

RAW-Dual [3] = experiment: NF-kB SEAP reporter activity, fold change vs agonist alone; cytotoxicity flag (confluency mask): cytotoxic (confluency <70% of control); higher = enhanced NF-kB activity
How it was run: as §1

[4] = cytotoxicity flag (confluency mask): not cytotoxic, agonist: MPLA (TLR4) […]
[5] = agonist: ODN 1826 (TLR9) 0.5 ug/mL
[6] = agonist: Pam2CSK4 (TLR2/6) 0.1 ug/mL
[7] = agonist: Pam3CSK4 (TLR2/1) 0.1 ug/mL
[8] = cytotoxicity flag (confluency mask): not cytotoxic, agonist: Imiquimod (TLR7) […]
[9] = cytotoxicity flag (confluency mask): cytotoxic (confluency <70% of control), agonist: Imiquimod (TLR7) […]
[10] = cytotoxicity flag (confluency mask): cytotoxic (confluency <70% of control), agonist: MPLA (TLR4) […]

For `COc1cccc2oc(-c3ccccc3)cc(=O)c12`, which “NF-kB SEAP reporter activity” value (RAW-Dual [1]; [4]) is on record?
Its value is 1.03.

`COc1cccc2oc(-c3ccccc3)cc(=O)c12` (library stock concentration (final ~1000-fold dilution): 10 mM) was tested. Which “NF-kB SEAP reporter activity” value (RAW-Dual [2]; agonist: LPS (TLR4) 0.1 ug/mL) did it give?
The value was 1.04.

And the “NF-kB SEAP reporter activity” value (RAW-Dual [2]; [5])?
Its value is 1.24.

What about the “NF-kB SEAP reporter activity” value (RAW-Dual [2]; [6]) of the same compound?
Its value is 1.13.

What about the “NF-kB SEAP reporter activity” value (RAW-Dual [2]; [7]) of the same compound?
Its value is 0.887.

With `CC(C)c1nc(CN(C)C(=O)NC(CCN2CCOCC2)C(=O)NC(CCC(Cc2ccccc2)NC(=O)OCc2cncs2)Cc2ccccc2)cs1` (stereo not given) (library stock concentration (final ~1000-fold dilution): 10 mM) as the compound, how does the “NF-kB SEAP reporter activity” value (RAW-Dual [2]; agonist: LPS (TLR4) 0.1 ug/mL) read?
The value was 0.904.

And the “NF-kB SEAP reporter activity” value (RAW-Dual [2]; [5])?
The value was 1.24.

And the “NF-kB SEAP reporter activity” value (RAW-Dual [2]; [6])?
The value was 0.65.

What about the “NF-kB SEAP reporter activity” value (RAW-Dual [2]; [7]) of the same compound?
Its value is 0.778.

For `CC(C)c1nc(CN(C)C(=O)NC(CCN2CCOCC2)C(=O)NC(CCC(Cc2ccccc2)NC(=O)OCc2cncs2)Cc2ccccc2)cs1` (stereo not given), which “NF-kB SEAP reporter activity” value (RAW-Dual [1]; [8]) is on record?
Its value is 1.11.

What about the “NF-kB SEAP reporter activity” value (RAW-Dual [1]; [4]) of the same compound?
Its value is 0.986.

For `COC1/C=C/OC2(C)Oc3c(C)c(O)c4c(O)c(c(/C=N/N5CCN(C)CC5)c(O)c4c3C2=O)NC(=O)/C(C)=C/C=C/C(C)C(O)C(C)C(O)C(C)C(OC(C)=O)C1C` (stereo not given) (library stock concentration (final ~1000-fold dilution): 10 mM), which “NF-kB SEAP reporter activity” value (RAW-Dual [2]; agonist: LPS (TLR4) 0.1 ug/mL) is on record?
The value was 0.987.

What about the “NF-kB SEAP reporter activity” value (RAW-Dual [2]; [5]) of the same compound?
Its value is 0.979.

And the “NF-kB SEAP reporter activity” value (RAW-Dual [2]; [6])?
The value was 0.906.

What about the “NF-kB SEAP reporter activity” value (RAW-Dual [2]; [7]) of the same compound?
Its value is 0.892.

How did the “NF-kB SEAP reporter activity” value (RAW-Dual [1]; [8]) turn out when `COC1/C=C/OC2(C)Oc3c(C)c(O)c4c(O)c(c(/C=N/N5CCN(C)CC5)c(O)c4c3C2=O)NC(=O)/C(C)=C/C=C/C(C)C(O)C(C)C(O)C(C)C(OC(C)=O)C1C` (stereo not given) was run?
The value was 0.886.

And the “NF-kB SEAP reporter activity” value (RAW-Dual [1]; [4])?
Its value is 0.877.

Which results are given for `COS(=O)(=O)[O-].COc1cccc2c1nc1ccccc1[n+]2C`?
NF-kB SEAP reporter activity (RAW-Dual [1]; [9]): 0.838; NF-kB SEAP reporter activity (RAW-Dual [1]; [10]): 0.899

With `COS(=O)(=O)[O-].COc1cccc2c1nc1ccccc1[n+]2C` (library stock concentration (final ~1000-fold dilution): 10 mM) as the compound, how does the “NF-kB SEAP reporter activity” value (RAW-Dual [3]; agonist: LPS (TLR4) 0.1 ug/mL) read?
The value was 0.473.

And the “NF-kB SEAP reporter activity” value (RAW-Dual [3]; [5])?
Its value is 0.781.

And the “NF-kB SEAP reporter activity” value (RAW-Dual [3]; [6])?
Its value is 0.271.

And the “NF-kB SEAP reporter activity” value (RAW-Dual [3]; [7])?
Its value is 0.272.

With `CC(C)C1C(=O)NC(CCCNC(=N)N)C(=O)NCC(=O)NC(CC(=O)O)C(=O)NC(Cc2ccccc2)C(=O)N1C.O=C(O)C(F)(F)F` (stereo not given) (library stock concentration (final ~1000-fold dilution): 10 mM) as the compound, how does the “NF-kB SEAP reporter activity” value (RAW-Dual [2]; agonist: LPS (TLR4) 0.1 ug/mL) read?
Its value is 0.99.

And the “NF-kB SEAP reporter activity” value (RAW-Dual [2]; [5])?
Its value is 1.01.

And the “NF-kB SEAP reporter activity” value (RAW-Dual [2]; [6])?
Its value is 0.985.

What about the “NF-kB SEAP reporter activity” value (RAW-Dual [2]; [7]) of the same compound?
The value was 0.921.

What does the source list for `CC(C)C1C(=O)NC(CCCNC(=N)N)C(=O)NCC(=O)NC(CC(=O)O)C(=O)NC(Cc2ccccc2)C(=O)N1C.O=C(O)C(F)(F)F` (stereo not given)?
NF-kB SEAP reporter activity (RAW-Dual [1]; [8]): 0.977; NF-kB SEAP reporter activity (RAW-Dual [1]; [4]): 1.11

Which results are given for `N#C/C(=C\c1cn(-c2ccccc2)c2ccccc12)C(=O)O` (library stock concentration (final ~1000-fold dilution): 10 mM)?
NF-kB SEAP reporter activity (RAW-Dual [2]; agonist: LPS (TLR4) 0.1 ug/mL): 0.823; NF-kB SEAP reporter activity (RAW-Dual [2]; [5]): 0.857; NF-kB SEAP reporter activity (RAW-Dual [2]; [6]): 0.954; NF-kB SEAP reporter activity (RAW-Dual [2]; [7]): 0.662

`N#C/C(=C\c1cn(-c2ccccc2)c2ccccc12)C(=O)O` was tested. Which “NF-kB SEAP reporter activity” value (RAW-Dual [1]; [4]) did it give?
Its value is 0.864.

Which results are given for `Brc1ccc(C2CN3CCSC3=N2)cc1.O=C(O)C(=O)O` (stereo not given) (library stock concentration (final ~1000-fold dilution): 10 mM)?
NF-kB SEAP reporter activity (RAW-Dual [2]; agonist: LPS (TLR4) 0.1 ug/mL): 1.48; NF-kB SEAP reporter activity (RAW-Dual [2]; [5]): 0.888; NF-kB SEAP reporter activity (RAW-Dual [2]; [6]): 0.956; NF-kB SEAP reporter activity (RAW-Dual [2]; [7]): 1.01

For `Brc1ccc(C2CN3CCSC3=N2)cc1.O=C(O)C(=O)O` (stereo not given), which “NF-kB SEAP reporter activity” value (RAW-Dual [1]; [8]) is on record?
Its value is 0.948.

What about the “NF-kB SEAP reporter activity” value (RAW-Dual [1]; [4]) of the same compound?
Its value is 1.01.

With `CCN(CC)CCNC(=O)c1cc(Cl)c(N)cc1OC` as the compound, how does the “NF-kB SEAP reporter activity” value (RAW-Dual [1]; [8]) read?
The value was 0.902.

And the “NF-kB SEAP reporter activity” value (RAW-Dual [1]; [4])?
Its value is 1.14.

Which “NF-kB SEAP reporter activity” value (RAW-Dual [2]; agonist: LPS (TLR4) 0.1 ug/mL) does the source give for `CCN(CC)CCNC(=O)c1cc(Cl)c(N)cc1OC` (library stock concentration (final ~1000-fold dilution): 10 mM) here?
The value was 0.998.

What about the “NF-kB SEAP reporter activity” value (RAW-Dual [2]; [5]) of the same compound?
The value was 0.933.

What about the “NF-kB SEAP reporter activity” value (RAW-Dual [2]; [6]) of the same compound?
Its value is 1.

And the “NF-kB SEAP reporter activity” value (RAW-Dual [2]; [7])?
Its value is 1.04.

With `COc1cc2c(Oc3ccc(NC(=O)C4(C(=O)Nc5ccc(F)cc5)CC4)cc3F)ccnc2cc1OCCCN1CCOCC1` as the compound, how does the “NF-kB SEAP reporter activity” value (RAW-Dual [1]; [8]) read?
The value was 0.252.

What about the “NF-kB SEAP reporter activity” value (RAW-Dual [1]; [4]) of the same compound?
Its value is 0.252.

For `COc1cc2c(Oc3ccc(NC(=O)C4(C(=O)Nc5ccc(F)cc5)CC4)cc3F)ccnc2cc1OCCCN1CCOCC1` (library stock concentration (final ~1000-fold dilution): 10 mM), which “NF-kB SEAP reporter activity” value (RAW-Dual [2]; agonist: LPS (TLR4) 0.1 ug/mL) is on record?
Its value is 0.266.

What about the “NF-kB SEAP reporter activity” value (RAW-Dual [2]; [5]) of the same compound?
The value was 0.184.

And the “NF-kB SEAP reporter activity” value (RAW-Dual [2]; [6])?
The value was 0.0818.

And the “NF-kB SEAP reporter activity” value (RAW-Dual [2]; [7])?
The value was 0.137.

For `CC(=O)c1ccc2c(c1)c1cc(C(C)=O)ccc1n2CCNC(C)C`, which “NF-kB SEAP reporter activity” value (RAW-Dual [1]; [9]) is on record?
The value was 0.147.

What about the “NF-kB SEAP reporter activity” value (RAW-Dual [1]; [10]) of the same compound?
Its value is 0.242.

`CC(=O)c1ccc2c(c1)c1cc(C(C)=O)ccc1n2CCNC(C)C` (library stock concentration (final ~1000-fold dilution): 10 mM) was tested. Which “NF-kB SEAP reporter activity” value (RAW-Dual [3]; agonist: LPS (TLR4) 0.1 ug/mL) did it give?
The value was 0.301.

What about the “NF-kB SEAP reporter activity” value (RAW-Dual [3]; [5]) of the same compound?
The value was 0.193.

And the “NF-kB SEAP reporter activity” value (RAW-Dual [3]; [6])?
The value was 0.0764.

And the “NF-kB SEAP reporter activity” value (RAW-Dual [3]; [7])?
Its value is 0.183.

What does the source list for `COc1cc(N2CCC(N(C)C)CC2)ccc1Nc1ncc(Cl)c(Nc2ccccc2P(C)(C)=O)n1` (library stock concentration (final ~1000-fold dilution): 10 mM)?
NF-kB SEAP reporter activity (RAW-Dual [2]; agonist: LPS (TLR4) 0.1 ug/mL): 1.87; NF-kB SEAP reporter activity (RAW-Dual [2]; [5]): 1.64; NF-kB SEAP reporter activity (RAW-Dual [2]; [6]): 1.03; NF-kB SEAP reporter activity (RAW-Dual [2]; [7]): 1.46

How did the “NF-kB SEAP reporter activity” value (RAW-Dual [1]; [8]) turn out when `COc1cc(N2CCC(N(C)C)CC2)ccc1Nc1ncc(Cl)c(Nc2ccccc2P(C)(C)=O)n1` was run?
The value was 1.64.

And the “NF-kB SEAP reporter activity” value (RAW-Dual [1]; [4])?
Its value is 2.05.

`Cl.Clc1ccc2nsnc2c1NC1=NCCN1` (library stock concentration (final ~1000-fold dilution): 10 mM) was tested. Which “NF-kB SEAP reporter activity” value (RAW-Dual [2]; agonist: LPS (TLR4) 0.1 ug/mL) did it give?
Its value is 0.929.

And the “NF-kB SEAP reporter activity” value (RAW-Dual [2]; [5])?
Its value is 0.949.

And the “NF-kB SEAP reporter activity” value (RAW-Dual [2]; [6])?
The value was 1.1.

What about the “NF-kB SEAP reporter activity” value (RAW-Dual [2]; [7]) of the same compound?
The value was 0.986.

For `Cl.Clc1ccc2nsnc2c1NC1=NCCN1`, which “NF-kB SEAP reporter activity” value (RAW-Dual [1]; [8]) is on record?
Its value is 0.909.

What about the “NF-kB SEAP reporter activity” value (RAW-Dual [1]; [4]) of the same compound?
The value was 0.881.

What does the source list for `Nc1ccccc1S(N)(=O)=O` (library stock concentration (final ~1000-fold dilution): 10 mM)?
NF-kB SEAP reporter activity (RAW-Dual [2]; agonist: LPS (TLR4) 0.1 ug/mL): 1.36; NF-kB SEAP reporter activity (RAW-Dual [2]; [5]): 0.952; NF-kB SEAP reporter activity (RAW-Dual [2]; [6]): 0.995; NF-kB SEAP reporter activity (RAW-Dual [2]; [7]): 1.05

Which “NF-kB SEAP reporter activity” value (RAW-Dual [1]; [4]) does the source give for `Nc1ccccc1S(N)(=O)=O` here?
The value was 1.07.
